PubChem BioAssay AID488969 (Vanderbilt High Throughput Screening Facility, 2010)
In all, about 110,000 compounds were measured (“z-score”: median about -0.1, highest 2% from about 2 on). Some of the results follow. Calls of active or inactive are those of the source.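 Rule for the calls: active = z-score in the third read window above 3 or below -3; inactive = the rest.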

The compounds below were run against Metabotropic glutamate receptor 8 (Rattus norvegicus) (UniProt P70579) (assay: mGluR8 Gi/Go-coupled signaling modulation – cell-based, rat, thallium flux, HTS, primary screen (AID 488969)). Conditions: HEK293 rat mGluR8, GIRK (G protein-gated inwardly rectifying potassium channel) thallium flux, FluoZin2; at 10 µM; stronger effect = higher value; submaximal glutamate (EC20) added with thallium.
Sequence of UniProt P70579 (P70579 whole entry, looked up): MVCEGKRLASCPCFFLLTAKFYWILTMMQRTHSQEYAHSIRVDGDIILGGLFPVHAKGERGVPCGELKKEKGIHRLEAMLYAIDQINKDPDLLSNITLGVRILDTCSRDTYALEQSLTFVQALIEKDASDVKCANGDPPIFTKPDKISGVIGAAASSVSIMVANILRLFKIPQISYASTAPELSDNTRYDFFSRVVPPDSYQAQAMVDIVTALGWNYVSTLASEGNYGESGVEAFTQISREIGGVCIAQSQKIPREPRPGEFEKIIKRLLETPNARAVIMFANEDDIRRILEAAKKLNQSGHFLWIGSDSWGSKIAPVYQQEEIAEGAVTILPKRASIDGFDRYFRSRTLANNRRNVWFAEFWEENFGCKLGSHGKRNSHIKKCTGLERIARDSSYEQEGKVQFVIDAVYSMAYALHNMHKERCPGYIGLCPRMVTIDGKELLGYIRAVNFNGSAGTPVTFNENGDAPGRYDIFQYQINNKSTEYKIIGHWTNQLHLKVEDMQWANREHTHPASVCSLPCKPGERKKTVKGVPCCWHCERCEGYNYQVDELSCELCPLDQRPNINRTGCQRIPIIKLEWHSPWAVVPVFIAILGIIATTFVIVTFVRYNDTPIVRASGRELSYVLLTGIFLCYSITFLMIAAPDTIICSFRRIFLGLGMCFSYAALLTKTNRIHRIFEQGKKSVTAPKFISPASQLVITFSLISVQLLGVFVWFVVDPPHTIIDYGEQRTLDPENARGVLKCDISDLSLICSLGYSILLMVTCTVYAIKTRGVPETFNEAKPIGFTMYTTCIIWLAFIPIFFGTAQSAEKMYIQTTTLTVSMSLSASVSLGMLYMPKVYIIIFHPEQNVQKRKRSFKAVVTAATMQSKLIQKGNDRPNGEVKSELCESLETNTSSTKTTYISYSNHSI
`c1ccc(Oc2ccc(-n3cnnn3)cc2)cc1` was tested, and the z-score was 0.426. In the case of `CCCCCOc1ccc(CSC2=NCCN2)cc1[N+](=O)[O-]`, the z-score is reported as 0.0304. In the case of `CNCCCOc1ccc(C(C)(C)c2ccccc2)cc1`, the z-score is reported as 0.32. `CC(=O)Nc1ccc(N(C)C)cc1[N+](=O)[O-]` showed a z-score of 0.183. In the case of `Cc1ccc(NC(=O)CCC(=O)NNC(=O)c2cccc([N+](=O)[O-])c2)cc1C`, the z-score is reported as -0.622. In the case of `COc1cccc(C2CC(c3cccs3)=NN2C(=O)CSc2nc3ccccc3o2)c1OC` (centres undefined), the z-score is reported as -0.147. Work on `COC(=O)c1ccc(NC(=O)CN2C(=O)C3C4C=CC(C4)C3C2=O)cc1` (centres undefined) yielded a z-score of -0.0955. In the case of `CCc1nn(CC(=O)NCCCN2CCc3ccccc3C2)c(=O)c2cc3sccc3n12`, the z-score is reported as -0.0587. `COc1ccc(NC(=S)c2ccc(N(C)C)cc2)cc1` gave a z-score of -0.183. `OC(COc1ccc2ccccc2c1)CN1CCOCC1` (centres undefined) gave a z-score of -0.0154. Work on `Cc1cccc(-n2c(SCC(=O)N3CC(=O)Nc4ccccc43)nc3ccccc3c2=O)c1C` yielded a z-score of -0.543. `CCOC(=O)c1cc2oc(C(c3nnnn3C3CCCCC3)N3CCOCC3)cc2[nH]1` (centres undefined) was tested, and the z-score was 0.252. `O=C(CN1C2=NCCN2c2ccccc21)c1cccs1` showed a z-score of 0.0115. In the case of `O=C(O)c1ccc(CSc2n[nH]c(-c3ccco3)n2)cc1`, the z-score is reported as 0.105. In the case of `COCC(=O)Nc1cc(C(=O)Nc2cccc(C)c2C)ccc1Cl`, the z-score is reported as -0.402. In the case of `COc1ccc(OCCCN2CCCCCC2)cc1`, the z-score is reported as active: 8.02. Compound `CC12CC3(C)CC(C)(C1)CC(NC(=O)N1CCCC1)(C2)C3` has a z-score of -0.28. In the case of `Cc1ccc(=O)n(C(C(=O)NCc2ccco2)C(=O)c2ccc(F)cc2)c1` (centres undefined), the z-score is reported as 0.623. With `CC1(C)CC(CC(=O)Nc2ccccc2[N+](=O)[O-])C(=O)O1` (centres undefined) the z-score was -0.0252. For `O=c1n(-c2cccc(Cl)c2)c(=O)n2n1CCC2`, the z-score was -0.72. In the case of `CSc1nc2cc(S(=O)(=O)N3CCOCC3)ccc2s1`, the z-score is reported as 0.204. `COCCCn1c(SCc2cccc(C(F)(F)F)c2)nc2cc(OC)c(OC)cc2c1=N` was tested, and the z-score was -0.159. Work on `CCN(CC)CCN1C(=O)c2ccccc2NC1c1ccc(N(C)C)cc1` (centres undefined) yielded a z-score of -0.18. `CCOC(=O)c1c[nH]c2c(Cl)c(Cl)ccc2c1=O` was tested, and the z-score was -0.236. In the case of `Cc1cccc(NC(=O)C2CCN(S(=O)(=O)c3cccs3)CC2)c1`, the z-score is reported as -0.638. With `COC(=O)C1=C(C)OC(N)=C(C#N)C1c1c(C)nn(-c2ccccc2)c1Cl` (centres undefined) the z-score was -0.777. `O=C(OCC(=O)N1CCCCCC1)c1cccs1` gave a z-score of 0.295. Work on `CCN(CC)c1ccc([N+](=O)[O-])cc1C(=O)O` yielded a z-score of 0.0144. `Cc1nc2c(C(=O)NCc3ccccc3)c[nH]n2c(=O)c1Cl` was tested, and the z-score was -1.48. In the case of `CC(=O)c1ccc(Oc2cc(C)nc(-n3nc(C)cc3C)n2)cc1`, the z-score is reported as 0.366. In the case of `CC(C)n1ncc(C(N)=O)c1N`, the z-score is reported as -0.447. `O=C(CN1CCC(C(=O)c2ccc(F)cc2)CC1)Nc1ccc(F)cc1` showed a z-score of 0.273. Compound `Cc1ccc(Nc2nc(-c3c(C)nc4ncccn34)cs2)cc1` has a z-score of -0.789. `O=S(=O)(c1ccc(S(=O)(=O)N2CCN(Cc3ccccc3)CC2)cc1)N1CCOCC1` was tested, and the z-score was -0.0128. In the case of `COc1ccccc1NC(=S)NCCc1ccccc1`, the z-score is reported as -0.188. For `CC(C)CCOc1ncnc2c1sc1nc3c(cc12)CSC(C)(C)C3`, the z-score was -1.34. For `Cc1nc2ccccc2c2oc(C(=O)NCCN3CCN(C)CC3)cc12`, the z-score was -0.131. Work on `CC(Nc1cc(N2CCNCC2)ccc1[N+](=O)[O-])c1ccccc1` (centres undefined) yielded a z-score of 1.15. With `O=C1CC(SCCc2nc3ccccc3[nH]2)C(=O)N1c1ccc(Cl)cc1` (centres undefined) the z-score was -0.246. `O=C(CSc1nnc(COc2ccccc2F)n1-c1ccccc1)NC1CCS(=O)(=O)C1` (centres undefined) showed a z-score of -0.055. `O=C(Cc1ccccc1)Nc1nc2ccccc2[nH]1` showed a z-score of 1.95. In the case of `COc1cc2c(cc1NC(=O)CSc1nnc(COc3ccc(Cl)cc3)n1C)oc1ccccc12`, the z-score is reported as -0.224. Compound `CS(=O)(=O)N(Cc1ccccc1)c1ccccc1C(=O)Nc1ccccc1C(=O)NCc1ccco1` has a z-score of -1.29. `CCCCN(CC)C(=O)c1n[nH]c(=O)c2ccccc12` was tested, and the z-score was -0.164. `N#CC(c1ccc(Cl)cc1)(c1ncc(C(F)(F)F)cc1Cl)N1CCOCC1` (centres undefined) gave a z-score of -0.37. In the case of `CCN(CC)CCn1c(=S)[nH]c2cc3c(cc2c1=O)OCO3`, the z-score is reported as -0.565. With `COc1cc2c(cc1NC(=O)COC(=O)CNS(=O)(=O)c1ccc(C)cc1)oc1ccccc12` the z-score was -0.495. For `O=S(=O)(/N=C(/Nc1ccccc1)c1ccccc1)c1cccs1`, the z-score was -0.282. With `CN1CCN(c2ccccc2NC(=O)c2cccc(OCc3ccccc3)c2)CC1` the z-score was 0.877. `CCC(Sc1nc2n[nH]c(C)c2c(=N)n1-c1cccc(Cl)c1)C(=O)NCCOC` (centres undefined) was tested, and the z-score was -0.708. `O=C(C1CCCO1)N1CCN(C(=S)Nc2ccccc2C(F)(F)F)CC1` (centres undefined) was tested, and the z-score was -0.171. In the case of `CC(=O)Nc1cc2c(cc1NC(=O)c1cnccn1)OCCO2`, the z-score is reported as -0.385. In the case of `COc1ccc(CNS(=O)(=O)c2ccc3c(c2)CCN3C(=O)C2CC2)cc1`, the z-score is reported as 0.673. Work on `CCOc1ccccc1NC(=O)COC(=O)CSc1ccc(Cl)cc1` yielded a z-score of 0.0724.
